How the values were obtained:
[1] = target: T1, rVIII-SingleChain (recombinant single-chain Factor VIII) (Homo sapiens (Human), UniProt P00451 20-2351); test: SPR (Biacore T200), D′D3-FP captured on anti-albumin antibody, rVIII-SingleChain as analyte, single cycle kinetics, 25 °C; D′D3-FP dimer preparation (not monomer)
T1 construct: also called FVIII; rFVIII
T1 sequence: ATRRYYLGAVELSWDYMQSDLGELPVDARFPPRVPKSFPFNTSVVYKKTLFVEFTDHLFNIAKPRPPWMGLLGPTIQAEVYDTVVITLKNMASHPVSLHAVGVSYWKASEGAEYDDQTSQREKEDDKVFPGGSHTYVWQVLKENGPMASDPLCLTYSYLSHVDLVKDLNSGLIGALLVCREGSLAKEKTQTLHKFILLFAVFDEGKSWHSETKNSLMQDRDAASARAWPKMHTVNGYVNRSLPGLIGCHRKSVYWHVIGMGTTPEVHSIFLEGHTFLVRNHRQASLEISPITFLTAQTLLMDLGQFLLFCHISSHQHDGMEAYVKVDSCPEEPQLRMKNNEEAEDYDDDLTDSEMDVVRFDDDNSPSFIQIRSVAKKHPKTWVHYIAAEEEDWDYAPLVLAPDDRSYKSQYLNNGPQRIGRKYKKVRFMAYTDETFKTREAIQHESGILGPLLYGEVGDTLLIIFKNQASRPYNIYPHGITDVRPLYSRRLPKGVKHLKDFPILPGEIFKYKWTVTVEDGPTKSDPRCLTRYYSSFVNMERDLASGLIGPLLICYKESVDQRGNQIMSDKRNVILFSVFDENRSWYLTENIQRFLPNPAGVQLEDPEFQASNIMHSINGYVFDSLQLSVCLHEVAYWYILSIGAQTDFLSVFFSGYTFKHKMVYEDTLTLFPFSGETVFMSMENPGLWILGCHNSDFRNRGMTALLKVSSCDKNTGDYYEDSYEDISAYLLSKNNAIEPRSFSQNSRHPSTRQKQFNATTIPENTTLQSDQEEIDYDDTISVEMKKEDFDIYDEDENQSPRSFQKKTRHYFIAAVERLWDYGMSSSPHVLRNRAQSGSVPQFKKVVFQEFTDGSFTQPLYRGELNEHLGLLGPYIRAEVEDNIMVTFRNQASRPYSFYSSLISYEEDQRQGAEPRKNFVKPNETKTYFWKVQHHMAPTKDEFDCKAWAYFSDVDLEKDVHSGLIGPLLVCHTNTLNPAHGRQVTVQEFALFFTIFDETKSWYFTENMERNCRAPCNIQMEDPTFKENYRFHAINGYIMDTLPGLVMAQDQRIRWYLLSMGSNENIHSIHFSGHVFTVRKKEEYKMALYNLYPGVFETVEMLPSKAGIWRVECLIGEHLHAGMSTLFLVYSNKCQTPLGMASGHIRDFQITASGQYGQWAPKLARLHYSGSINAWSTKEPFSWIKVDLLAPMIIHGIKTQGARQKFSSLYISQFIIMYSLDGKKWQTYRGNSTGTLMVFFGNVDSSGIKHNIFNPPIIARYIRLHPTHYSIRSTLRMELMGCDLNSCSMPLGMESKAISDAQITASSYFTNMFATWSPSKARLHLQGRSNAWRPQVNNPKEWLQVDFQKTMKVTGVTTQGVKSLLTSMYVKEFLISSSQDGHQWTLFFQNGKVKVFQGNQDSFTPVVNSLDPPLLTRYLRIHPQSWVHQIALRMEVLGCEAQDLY
Protocol: (§1) A VWF fragment (1-1242) albumin fusion (D′D3-FP) was expressed in a bioreactor; after purification as described above and isolation of monomer and dimer, the affinity of FVIII to these preparations was assessed through surface plasmon resonance via a Biacore instrument (T200, GE Healthcare).
(§2) Dimeric and monomeric D′D3-FP proteins, respectively, were immobilized to the covalently coupled anti-albumin antibody by a flow of the D′D3-FP proteins (5 μg/mL) over the chip for 3 min (flow rate of 10 μL/min).
(§3) To create binding curves for FVIII, each D′D3-FP protein preparation was diluted in running buffer (HBS-P+: 0.1 M HEPES, 1.5 M NaCl and 0.5% v/v Surfactant P20, pH 7.4; product code BR100671, GE Healthcare) to concentrations of 0.25 nM, 0.5 nM, 1 nM, 3 nM and 4 nM. By performing a single cycle kinetic, samples with ascending concentrations of each dilution were flown over the chip for 2 min (flow rate 30 μL/min.), followed by a dissociation time of 10 min. with running buffer HBS-P+. All measurements were performed twice. The temperature for the measuring procedure was adjusted to +25° C.

[2] = target: T1, rVIII-SingleChain (recombinant …); test: SPR (Biacore T200), D′D3-FP captured on anti-albumin antibody, rVIII-SingleChain as analyte, single cycle kinetics, 25 °C; D′D3-FP monomer preparation (not dimer)
Protocol: as §1, §2, §3

B1: D′D3-FP Dimer (dimeric VWF D′D3 albumin fusion protein) (other)
chain: SLSCRPPMVKLVCPADNLRAEGLECTKTCQNYDLECMSMGCVSGCLCPPGMVRHENRCVALERCPCFHQGKEYAPGETVKIGCNTCVCRDRKWNCTDHVCDATCSTIGMAHYLTFDGLKYLFPGECQYVLVQDYCGSNPGTFRILVGNKGCSHPSVKCKKRVTILVEGGEIELFDGEVNVKRPMKDETHFEVVESGRYIILLLGKALSVVWDRHLSISVVLKQTYQEKVCGLCGNFDGIQNNDLTSSNLQVEEDPVDFGNSWKVSSQCADTRKVPLDSSPATCHNNIMKQTMVDSSCRILTSDVFQDCNKLVDPEPYLDVCIYDTCSCESIGDCACFCDTIAAYAHVCAQHGKVVTWRTATLCPQSCEERNLRENGYECEWRYNSCAPACQVTCQHPEPLACPVQCVEGCHAHCPPGKILDELLQTCVDPEDCPVCEVAGRRFASGKKVTLNPSDPEHCQICHCDVVNLTCEACQEPGGSSGGSGGSGGSGGSGGSGGSGGSGGSGGSGS[about 600 residues not listed]
notes: Expressed from VWF aa 1-1242 plus linker plus albumin; The dimer fraction was isolated by size exclusion chromatography; The monomers are disulfide-linked within the truncated VWF part; In the SPR assay it was captured on an anti-albumin antibody; also called dimeric D′D3-FP; rD′D3-FP
[1]
  Kd: 0.034 nM

B2: D′D3-FP Monomer (monomeric VWF D′D3 albumin fusion protein) (other)
chain: SLSCRPPMVKLVCPADNLRAEGLECTKTCQNYDLECMSMGCVSGCLCPPGMVRHENRCVALERCPCFHQGKEYAPGETVKIGCNTCVCRDRKWNCTDHVCDATCSTIGMAHYLTFDGLKYLFPGECQYVLVQDYCGSNPGTFRILVGNKGCSHPSVKCKKRVTILVEGGEIELFDGEVNVKRPMKDETHFEVVESGRYIILLLGKALSVVWDRHLSISVVLKQTYQEKVCGLCGNFDGIQNNDLTSSNLQVEEDPVDFGNSWKVSSQCADTRKVPLDSSPATCHNNIMKQTMVDSSCRILTSDVFQDCNKLVDPEPYLDVCIYDTCSCESIGDCACFCDTIAAYAHVCAQHGKVVTWRTATLCPQSCEERNLRENGYECEWRYNSCAPACQVTCQHPEPLACPVQCVEGCHAHCPPGKILDELLQTCVDPEDCPVCEVAGRRFASGKKVTLNPSDPEHCQICHCDVVNLTCEACQEPGGSSGGSGGSGGSGGSGGSGGSGGSGGSGGSGS[about 600 residues not listed]
notes: The monomer fraction was isolated by size exclusion chromatography; In the SPR assay it was captured on an anti-albumin antibody; also called monomeric D′D3-FP
[2]
  Kd: 30 nM
